Data: the supplement of paper PMC10126150
Values marked as one replicate rest on one cluster of the flow cell; about a third of the high ones do not repeat.

System: ATP
Assay: switch fluorescence ratio, 500 uM ATP over buffer (Cy3 cluster intensity, sum of 5 cycles each) (fold (ratio)); higher = stronger signal-on switching upon ATP binding; sequences stand for … in TCGTCGGCAGCGTCAGATGTGTATAAGAGACAGTTTTTTTTTTTTTTTTTTTTTTTTT…TC
Details: aptamer strand: ATP DNA aptamer (quencher-CACCTGGGGGAGTATTGCGGAGGAAGG + anchor), 100 nM annealed; ATP concentration: 500 uM; one replicate
Procedure, shortened: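 Cy3-labelled switching-strand clusters on a modified Illumina MiSeq flow-cell were annealed to 100 nM quencher-labelled ATP aptamer and imaged first in selection buffer, then after 15 min with 500 uM ATP at 22 °C. NaOH stripping and re-annealing separated each of five buffer/ATP cycles, and clusters outside 100-1000 RFU were excluded. The fluorescence ratio sums target-cycle Cy3 intensity over buffer-cycle Cy3 intensity per cluster and averages it per switch-domain sequence.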
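Further: ATP exposure 15 min at 22 °C before imaging.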

Sequence | switch fluorescence ratio
AACCATTTCC | 1.88
TTCCTGTTCA | 1.04
GTGTCACACA | 1.06
CAACTCATTC | 1.05
CGCGGTGGTT | 0.983
ACCTGGCGAG | 1.03
TTACTCAGGA | 1.1
ATATGCCGAG | 1.07
TACCACGATT | 1.06
CCACATTATC | 1.51
CTGCAAGTCC | 2.14
TTACACTGTC | 1.09
CAAACGATTT | 1.01
CCCTCGTATG | 0.964
AGACGATTTT | 0.981
CCACGCTTT | 1.31
CATACTGCTA | 1.17
TGACACGGCA | 1.11
CGGATTTACG | 1.01
TGGGTTGGAC | 0.967
AACCATTAGC | 1.03
TCCCGGACAG | 1.02
TGGTTGCTGC | 0.972
TTCAGGCTCG | 0.999
CCCAATCTCG | 1.9
GGGAAGTACC | 1.25

Sequence | switch fluorescence ratio
AGTGGAGACC | 1.01
AAACAGGGTC | 1.01
AGATACAATA | 1.02
TATCGAGAAC | 0.989
AGTCTCTGTG | 0.977
CCTCCGAACG | 2.45
GTGGTATCA | 1.01
TTACTGCGCG | 0.971
GGGTATTG | 0.963
AGTCTGAGAT | 0.968
AGACGGAGTA | 0.999
CATTTAACCG | 1
CCAAATGTTC | 0.997
GGGTTACGTT | 1
ACGCGTATTT | 1.01
TATGGGATAG | 0.983
TATTAAGCTT | 1.07
TTAGGTATAT | 1.04
CACCTTTAAC | 0.988
ACAGTAAATT | 1.03
GGCTTCGCTG | 1.01
GCGTGTAACC | 1.02
ATGGTCTACT | 1.03
ATGAACCATT | 1.01
CGTCATGGAG | 0.974
GAATGATAAC | 0.991

Sequence | switch fluorescence ratio
TGGTTGGAAT | 0.986
TAAGACATCT | 0.975
CAGCTAATGG | 1.25
CACTTTATTA | 1.05
GAATCTAAA | 0.98
GGTTAATGCT | 0.993
AGGAAGAAAA | 1.06
GAAGTCTACC | 1.08
TGGATTTAA | 0.991
TGGCGGTAGA | 1.01
GATCTTTGCG | 1.04
AAGCCAGTAA | 0.997
CCACAAGAGG | 1.12
ACGCACTAGG | 1.47
ACGCTCCATT | 1.09
AAAATTAAAC | 1.04
ATGGTGGTTG | 1.01
CCACGGCAAG | 2.4
CAATGCTCTT | 1.15
CCTAGTGCAG | 1.11
TAGGGTCCTC | 0.978
GAATTAGGCA | 0.984
CTTTGTTGTC | 1.11
TTCCATAGCA | 1.39
CATACAGAGG | 1.02
CTTACCTAGC | 1.09

Sequence | switch fluorescence ratio
TTTGGGTGT | 1.07
GAGAGGCGTT | 1.02
GTAGTTATAA | 1
GATCGAGATC | 1.04
CACTAGTCGT | 0.997
GTCAATTATA | 0.968
ATGTCGGCGA | 1.03
GGGTACAAAC | 1.05
ACTGTAGCTG | 1.12
TTTCTACATC | 1.03
TAGAAACGTT | 1.01
TCTTCAAGGG | 1.03
GGGGCGGTTC | 0.995
CGGCTTTAAG | 1.01
CGATCAAGGG | 1.02
CTGTATGTTT | 0.995
TTTACAGCTC | 1
TCGACTATGT | 1
TCTGCCGTAC | 1.22
TTTCTTAAAG | 1.06
AGAACAGAGA | 0.985
GTGTGGCAAA | 1.62
AATTTTGAAC | 1.02
GAACGCGCAA | 2.87
AGCCGCCACG | 1.05
TAAGGATTAG | 1.02

Sequence | switch fluorescence ratio
TTAGGGCCTC | 0.971
ACGTAGGCGA | 1.08
AGTTCTCACT | 1.05
TGATCATCAT | 1.08
CCTTCGGCTT | 1.58
GGGCTTTACA | 0.959
TGCCCTTTGT | 0.999
ATAGTCGGCT | 1.14
AGGATGTTAA | 0.926
TTCCACTGGT | 1.04
TGAACTAGCT | 0.98
GGTAAAAGCG | 0.987
CAGAGATGTC | 1.04
CGTCCTAGAC | 1.2
ATCATGCAGG | 1.04
GGGTACCTCG | 1
GTCCCGTG | 0.973
CCTAAGTAAG | 1.1
CCAGCCCCAA | 1.55
TTTCCCCGCG | 1.18
AAAACAGACG | 1.07
GAAGTGCTAC | 1.12
CGGGAATTAC | 1.47
TTCATGTGCC | 1.04
TTTAATGGTA | 0.964
CTTGGAGCCA | 0.959

Sequence | switch fluorescence ratio
TATCCTTGGA | 0.978
GGGAAGACCT | 0.953
TGCACTTACT | 1.28
CAGTATGAAG | 0.972
TTGTCATGTG | 1.02
ATGACTGTGT | 0.96
TCAATGTCCC | 1.04
ACGATCGATG | 0.997
CGTCAGAGAA | 0.987
AATATACGGC | 1.04
GGGAATAGCA | 0.983
ATCGGGGTTA | 0.965
CGATGGGTCC | 1.08
TACGGGGAAT | 1
GGGGGGTTG | 0.934
AGCTGGCACT | 1.04
GTCACCAGGT | 2.2
GCCAAAGGTA | 0.984
ATAGCACACG | 1.13
TTCGTGAGTT | 0.98
GCTCTAATCT | 0.999
CCATAATAAT | 1.02
AGCCGTGTTG | 1.01
TTAGCTGATA | 1.01
TAAAGACGCT | 1
AGTCGATCAA | 0.95

Sequence | switch fluorescence ratio
GGTCGTATGA | 1.01
TAATTGCG | 1.02
TATTTAATT | 0.996
AAAATTCCGA | 1.04
TGGTTACATT | 1.01
TGGCTGAGGC | 0.981
CCAAAATTAA | 1
CGTTGTCTTG | 0.974
AATTCAGATC | 1.01
TAGGTACAAG | 0.997
ATACGCTCGG | 1
TAAAGAGTCT | 1.03
AATGAGGTTG | 0.934
CGACACTGCG | 1.02
CGGGTAC | 1.1
TTAAAGCCAT | 1.08
ATAGCTACTC | 2.02
GTTAATTTTG | 0.989
CCGGCGCGGT | 5.63
TAACGGCTAA | 0.994
ATATGGGCTA | 0.997
GACTTTGTCG | 1.04
CTTCTTTAGA | 1.02
TTATTCCGG | 1.11
GTGCACTACC | 1.02
CGATGTGAAG | 1.01

Sequence | switch fluorescence ratio
GCGTTGCGCG | 1
AAACACATAA | 1.05
ATTGTATCGG | 0.998
GTTGTATATG | 0.956
CATGTTACT | 0.988
CAGCGATTCG | 0.999
GTGGTATACG | 0.97
CCTCCTGGA | 1.03
CACTGTATAC | 1.66
CTGTTGGCGT | 1.05
TTCGGACATG | 0.982
TATTCGTAAC | 1.06
TAGTTACAAA | 1.02
CCCCCCTGGC | 1.12
TAGATTGGGG | 0.972
CAAGGGGTTG | 1.03
CGGAAATAGG | 0.96
TTGTGACAC | 1.02
GCAGTCCAAT | 0.99
